PubChem BioAssay AID1508624 (National Center for Advancing Translational Sciences (NCATS), 2021)
The campaign covered roughly 48,000 compounds. About 120 (0.25%) were called active. About 4% were inconclusive and are not listed. The call rests on the fitted dose curve; in most records, active means well fitted activation curve with a large enough effect; inconclusive means small, poorly fitted or top-dose-only effect, or another doubt; inactive means no such curve, though single readings can be large or run the other way. Some of the results follow.

assay: Primary qHTS for Identification of Small Molecule Activators of Huntingtin-Antisense Promoter Activity; settings: HEK293 HTT-AS promoter firefly luciferase reporter, 24 h; series mostly up to 57.5 µM; activity change, positive = activation: at the top concentration; further: nearly all actives have a fitted effect of over 55% in size
Outline: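 Quantitative HTS used concentration series of up to 57.5 uM final on HEK293 luciferase reporter cells, 24 h at 37 degrees C. Readout was Dual-Glo firefly luminescence.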

Activity change, positive = activation, inactive:
COc1ccc(-c2cc(C(=O)Oc3ccc(C)c(C)c3)c3ccccc3n2)cc1 2.79%
Cc1cccn2c(=O)c3cc(C(=O)NCc4ccccc4Cl)sc3nc12 -6.81%
CCC(C)NC(=O)c1c(-c2ccccc2)c(-c2ccccc2)nn(C)c1=O (stereo not given) -6.5%
Cc1ccc(C(=O)NC2(C(F)(F)F)C(=O)Nc3c2c(=O)[nH]c(=O)n3CCc2ccccc2)cc1 (stereo not given) -9.53%
CCOC(=O)c1cc(-c2ccccc2)n(CCCC(=O)Nc2ccc(C)cc2C)c1C -19%
Cc1c(C(=O)N2CCC(C(=O)Nc3ccc(F)cc3)CC2)sc2nc[nH]c(=O)c12 -14.4%
Cc1noc2ncnc(NCc3cccc(Cl)c3)c12 -39.3%
Cc1cccc(-n2c3nc(=O)n(C)c(=O)c-3cc3ccc(Cl)cc32)c1C -10.5%
Oc1cccc(Nc2ncnc3sc4c(c23)CCCC4)c1 -35.3%
CS(=O)(=O)N1CCc2cc(C(=O)NCc3ccccc3)ccc21 -9.04%
CC(C)(C)C(=O)N1CCN(c2nc3c(F)cccc3s2)CC1 22.7%
CCOc1ccc(-n2c(SCC(=O)N3CCCCC3)nc3c([nH]c4ccccc43)c2=O)cc1 -7.73%
O=C(CSc1nc(=O)n(Cc2ccco2)c2c1CCC2)NCc1ccc(F)cc1 -4.72%
COc1cc2ncnc(Nc3ccc(F)c(Cl)c3)c2cc1NC(=O)C=CCN1CCCCC1 -20.6%
CC1=C(C(=O)Nc2ccccc2C)C(c2ccccn2)n2nc(SCc3ccccc3F)nc2N1 (stereo not given) -13.9%
O=C(CCc1ccc(O)cc1)c1c(O)cc(O)cc1O -68%
COc1ccc2nc(NC(=O)c3ccc(S(=O)(=O)N4CCCC(C)C4)cc3)sc2c1 (stereo not given) -17.2%
CCc1ccc(NC(=O)CSc2nc(=O)n(Cc3ccco3)c3c2CCC3)cc1 -31.7%
Cc1nc2nc(NC(=O)c3ccc(Cl)cc3)[nH]n2c(=O)c1Cc1ccccc1 -1.89%
O=c1[nH]c(SCc2ccc(Br)cc2)nc2c1CCCC2 -5.43%
Cc1ccc(S(=O)(=O)c2nnn3c2nc(N2CCN(c4ccccc4F)CC2)c2ccccc23)cc1C -10.1%
CC(NC(=O)Cn1c(-c2cccs2)cc2cc(F)ccc21)c1ccccc1 (stereo not given) -21.3%
O=C(NC1CC(=O)N(c2ccc(Cl)cc2)C1)c1cccs1 (stereo not given) -24.7%
Cc1cc(N2CCC(C)CC2)nc2ccc(NC(=O)/C=C/c3cccc(Cl)c3)cc12 -9.58%
CCOc1ccc(-c2c(C)nn3c(C)c(C(=O)NCc4ccc(C)o4)cnc23)cc1OCC -12.5%
CC(C)c1ccc(Nc2c(-c3ccccc3O)nc3cnccn23)cc1 -26.8%
Cc1ccc2nc(NC(=O)c3cc(=O)c4cc(Cl)ccc4o3)sc2c1 -1.51%
CCc1ccccc1NC(=O)CSc1nnc(CC)c(CC)n1 -7.28%
O=C(NCCc1ccc(Cl)cc1)c1ccc(CS(=O)(=O)Cc2ccccc2F)o1 -27.4%
CC(=O)N1CCc2c(sc3c2c(=O)n(-c2ccc(C)cc2)c(=O)n3CC(=O)Nc2ccccc2)C1 -7.91%
Cn1c(Oc2ccc(F)cc2)nc2c1c(=O)n(Cc1ccccc1Cl)c(=O)n2C -44.7%
COc1ccccc1NC(=O)c1c(NC(=O)c2ccccc2F)sc2c1CCC2 -3.71%
COC(=O)c1c(NC(=O)c2ccccc2C(=O)O)sc2c1CCCC2 -4.53%
Cc1ccc(-c2cc(C(=O)NCc3ccccc3)c3c(-c4ccc(C)cc4)[nH]nc3n2)cc1 -6.75%
COc1ccc(Cn2ccc3nc(C)c(C(=O)Nc4ccc(C)c(F)c4)cc3c2=O)cc1 2.15%
COc1ccc(N2CCN(C(=O)c3nc(-c4ccc(Cl)cc4)n4c3CCCCC4)CC2)cc1 -6.17%
COc1ccc(NC(=O)c2nnn(Cc3ccc(Br)cc3F)c2N)c(OC)c1 -19.6%
O=C(C1CCN(S(=O)(=O)c2cccc3nonc23)CC1)N1CCN(c2ccccc2)CC1 -19.1%
CCOc1ccc(CNC(=O)c2ccc(CS(=O)c3ccccc3)o2)cc1 (stereo not given) -14%
CS(=O)(=O)N1CCc2cc(C(=O)N3CCN(c4ccc(F)cc4)CC3)ccc21 -8.58%
Cc1ccc(-n2c(SCC(=O)Nc3cccc(Cl)c3)nc3n[nH]c(C)c3c2=N)cc1 -30.5%
Cc1ccc(N2CC(NC(=O)c3ccc4c(c3)OCO4)CC2=O)cc1 (stereo not given) -10.8%
CC(=O)N1CCCc2ccc(NS(=O)(=O)c3ccc(F)cc3F)cc21 -1.31%
Cc1ccccc1NC(=O)Cn1nc(-c2ccc(F)cc2)c2cnc3ccccc3c21 -8.73%
Cc1cccc(C(=O)Nc2nc(-c3ccc(Br)cc3)ns2)c1 5.84%
COc1cc(C(=O)N2CCc3c([nH]c4ccccc34)C2c2ccccc2)cc(OC)c1OC (stereo not given) -40.9%
CN=C(NC#N)NCCSCc1csc(N=C(N)N)n1 -7.71%
CCOC(=O)C1CCN(C(=O)Cn2ncc3c([nH]c4ccc(C)cc43)c2=O)CC1 -2.87%
CC(=O)N1CCC2(CC1)OC(=O)C(C)=C2C(=O)Nc1ccccc1C(F)(F)F -11.6%
Cc1cccc(N(CC(=O)NCCSc2ccc(Cl)cc2)S(=O)(=O)c2ccccc2)c1C -26.6%
CCCC(=O)OC[C@@H](OC(=O)CCC)[C@@H](OC(=O)CCC)[C@H](Cn1c2nc(=O)[nH]c(=O)c-2nc2cc(C)c(C)cc21)OC(=O)CCC -16%
CN(C)CCN1C(=O)c2ccccc2N(C)c2ccccc21 -2.32%
CCCC(=O)O[C@]1(C(=O)COC(=O)CC)CC[C@H]2[C@@H]3CCC4=CC(=O)CC[C@]4(C)[C@H]3[C@@H](O)C[C@@]21C -3.45% [at 25.1 µM, percent change from vehicle, -100% = no light]
CC(S)C(=O)NCC(=O)O (stereo not given)
COc1ccc(OC)c(C(O)CNC(=O)CN)c1 (stereo not given) 3.31%
CSc1ncc(C(=O)N2CCN(c3ccc(F)cc3)CC2)c(C)n1 -8.02%
Cc1ccc(C)c(N2CCN(C(=O)c3cc(S(=O)(=O)N4CCCC4)cn3C)CC2)c1 -21.8%
COc1cccc(-c2nn(C)c3sc(C(=O)N4CCN(c5cccc(C)c5)C(C)C4)cc23)c1 (stereo not given) -34.9%
COc1ccccc1CCNC(=O)Cn1ccc2cc(S(=O)(=O)N3CCCCCC3)ccc21 -35.7%
CCc1nnc(SCc2nc(-c3ccc(OC)cc3)oc2C)c2cc3sccc3n12 -10.9%
CCOC(=O)C1CCC(CN(Cc2c(Cl)cccc2Cl)S(=O)(=O)c2ccc(F)cc2)CC1 (stereo not given) -22.9%
COc1ccc(N2CCN(C(=O)c3ccc4c(c3)CCN4S(C)(=O)=O)CC2)cc1 18.4%
CCSc1nc2c(c(=O)[nH]c(=O)n2C)n1CC(O)COc1ccc(Cl)cc1 (stereo not given) -19.3%
Cc1ccc(C)c(S(=O)(=O)c2nnn3c2nc(Nc2ccc(F)c(Cl)c2)c2sccc23)c1 -10.4%
Cc1c(Cl)cccc1NC(=O)Cn1nc(C)c2sc3ccccc3c2c1=O 3.71%
Cc1nc(SCC(=O)Nc2ccc(Br)cc2)[nH]c(=O)c1Cc1ccccc1 -32.7%
Cc1ccc(S(=O)(=O)CCC(=O)N2CCN(c3nc4c(C)c(Cl)ccc4s3)CC2)cc1 -14.7%
Cc1ccc2c(c1)N(C(=O)N1CCC(C(=O)NCc3ccco3)CC1)CC(C)O2 (stereo not given) -8.91%
CCCCOC(=O)c1ccc(NC(=O)Cc2coc3ccc(C(C)C)cc23)cc1 -82.2%
CCc1ccc(OCC(=O)NCc2nc(-c3cccc(C)c3)no2)c(Br)c1 -18.2%
COc1ccc(CCN2C(=O)N(c3ccc(F)cc3)C(=O)C2CC(=O)Nc2ccc(F)c(F)c2)cc1 (stereo not given) -6.51%
CCOc1ccc(N(CC(=O)NCc2ccc(Cl)cc2)S(=O)(=O)c2c(C)noc2C)cc1 -5.57%
Cc1ccc(C(=O)Nc2ccc(OCc3cc(=O)n4c5c(sc4n3)CCCC5)cc2)cc1 -4.39%
CC(C)[N+]1(C)[C@@H]2CC[C@H]1CC(OC(=O)C(CO)c1ccccc1)C2 (stereo not given in full) -21.6%
Cc1c(NC(=O)c2ccc(N3CCC(C)CC3)c([N+](=O)[O-])c2)cccc1-c1nc2ccccc2o1 -1.26%
Cc1cccc(N2CCN(C(=O)c3oc(=O)c4ccccc4c3-c3ccccc3)CC2)c1C -6.01%
Cc1cc(NC(=O)Nc2csc3c2CCCC3)ccc1Br -82.2%
Cc1ccccc1NC(=O)CN1C(=O)CCn2nc(-c3cccn3C)cc21 -7.69%
Cc1sc2c(c1C)c(=O)n(-c1cccc(C(F)(F)F)c1)c(=O)n2Cc1ccccc1C#N 13.4%
CCCCn1c(-c2ccc(C)cc2)c(C)n2c3c(=O)n(C)c(=O)n(C)c3nc12 -1.61%
Cc1ccccc1-c1noc(CSc2nnc(-c3ccncc3)n2-c2ccc(F)cc2)n1 -22.1%
Cc1ccc(OCCCCn2c(CCNC(=O)C(C)(C)C)nc3ccccc32)cc1 -26.8%
CCOc1ccc(N(CC)C(=O)CSc2n[nH]c(-c3ccccc3)n2)cc1 -37%
Cc1ncc(CO)c2c1Oc1nc(-c3ccccc3)nc(SCC(=O)Nc3cccc(C(F)(F)F)c3)c1C2 -19.2%
CCn1cc(C(=O)NCc2ccccc2Cl)c(=O)c2cc(S(=O)(=O)N3CCCCC3)ccc21 10.6% [at 11.5 µM, percent change from vehicle, -100% = no light]
O=C(CSc1n[nH]c(-c2ccccc2Cl)n1)N1CCN(c2ccccc2F)CC1 -22.9%
O=C(Cc1ccccc1)Nc1cccc(-c2nc3cccnc3s2)c1 13.1%
COc1ccc(-c2coc3c2c(C)cc2oc(=O)cc(C)c23)cc1 -7.07%
Cc1oc(-c2ccc(C(=O)NCc3ccccc3)cc2)nc1CS(=O)(=O)c1ccccc1 0%
O=C(NC1CCCC1)c1ccc2c(c1)N(Cc1ccccc1F)C(=O)c1ccccc1S2 -19.3%
CCOC(=O)c1c(C)oc2nc(C)nc(NC(C)c3ccccc3)c12 (stereo not given) -20.6%
CC1=C(C(=O)OCc2ccc(C)cc2)C(c2ccccc2Cl)CC(=O)N1 (stereo not given) -45%
CNC[C@H](O)c1ccc(O)c(O)c1
Cc1cccc(OCC(=O)Nc2ccc3c(c2)nc(CCNC(=O)c2ccco2)n3C)c1 2.27%
Cc1nc2c3ccccc3nc(NNC(=O)CCC(=O)N3CCN(c4ccccc4)CC3)n2n1 -17.4%
